In PMC4336329 (PLoS ONE, 2015):
In all, about 310,000 compounds went through this assay and about 14,000 (4.5%) showed an effect of 50% or more. The effect is printed as a negative number. This is one part of the list.

Each compound was assayed against human ether-à-go-go-related gene (hERG) potassium channel (human, UniProt Q12809) (assay: primary screen, population patch clamp on CHO cells stably expressing hERG).
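Note: peak tail current of the secondary pulse compared with the same well before compound.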

Chain of human ether-à-go-go-related gene (hERG) potassium channel (Q12809 whole entry, looked up): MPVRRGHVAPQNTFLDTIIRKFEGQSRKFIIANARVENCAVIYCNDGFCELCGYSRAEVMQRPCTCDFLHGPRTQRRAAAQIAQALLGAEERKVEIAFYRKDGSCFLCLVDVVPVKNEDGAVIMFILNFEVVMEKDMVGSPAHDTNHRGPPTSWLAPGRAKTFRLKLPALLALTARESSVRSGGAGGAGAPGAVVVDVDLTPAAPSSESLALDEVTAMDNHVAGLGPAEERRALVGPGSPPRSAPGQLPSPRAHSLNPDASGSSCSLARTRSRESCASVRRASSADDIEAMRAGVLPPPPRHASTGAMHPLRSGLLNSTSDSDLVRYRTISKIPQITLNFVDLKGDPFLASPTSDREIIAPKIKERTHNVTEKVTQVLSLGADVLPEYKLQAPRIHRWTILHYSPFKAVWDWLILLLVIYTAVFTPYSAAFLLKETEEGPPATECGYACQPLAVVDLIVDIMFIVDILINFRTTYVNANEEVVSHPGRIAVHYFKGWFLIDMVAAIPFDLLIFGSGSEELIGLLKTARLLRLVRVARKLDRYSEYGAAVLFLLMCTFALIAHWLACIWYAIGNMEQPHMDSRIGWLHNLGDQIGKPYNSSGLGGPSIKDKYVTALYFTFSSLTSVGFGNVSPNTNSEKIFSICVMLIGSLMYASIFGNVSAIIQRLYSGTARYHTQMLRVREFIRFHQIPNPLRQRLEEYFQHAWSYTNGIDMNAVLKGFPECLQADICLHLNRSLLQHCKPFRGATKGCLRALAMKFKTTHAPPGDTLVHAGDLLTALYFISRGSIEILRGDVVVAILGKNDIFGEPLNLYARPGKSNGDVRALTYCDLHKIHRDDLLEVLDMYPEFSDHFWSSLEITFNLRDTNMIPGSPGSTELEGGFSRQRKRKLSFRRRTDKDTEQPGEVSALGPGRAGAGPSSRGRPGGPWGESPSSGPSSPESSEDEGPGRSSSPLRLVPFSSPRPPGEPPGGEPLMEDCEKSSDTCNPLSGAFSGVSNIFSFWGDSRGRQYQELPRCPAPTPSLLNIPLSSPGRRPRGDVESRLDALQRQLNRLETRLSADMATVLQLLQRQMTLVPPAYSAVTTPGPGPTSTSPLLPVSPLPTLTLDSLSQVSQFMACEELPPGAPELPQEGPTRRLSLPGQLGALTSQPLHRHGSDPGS

SMILES | hERG current change (%, negative = inhibition) at 10uM [%]
CCCCc1ccc(-c2ccc(Br)cc2)nc1 | -2.43
Br.CN(C)c1nc(=Nc2cccc(Cl)c2)ss1 | 3.71
Cc1cc(C)n2nc(SCC(=O)NCc3ccco3)nc2n1 | 9.53
NC(=O)c1ccc(SCC(=O)OCC(=O)NCc2cccs2)c([N+](=O)[O-])c1 | -7.36
C=CCNc1sc(C(=O)c2cccs2)c(N)c1C#N | 19.6
Oc1c(Cl)cc(Cl)cc1/C=N/c1nc(-c2ccc(Cl)cc2)cs1 | 19.1
COc1nc(Nc2cccc(C)c2)nc(N2CCCCC2)n1 | -9.03
O=C(CN1C(=O)c2ccc(Br)cc2C1=O)NCC1CCCO1 (stereo not shown) | 1.18
CCOc1cc(C(=O)N(CC)CC(=O)Nc2ccc3c(c2)OCCO3)ccc1OC | 16.7
O=C(CSc1nccc(=O)[nH]1)NC1CCCC1 | 20.4
CCOC(=O)[C@H]1[C@H]2COc3ccc(Cl)cc3[C@@H]2N2C(=O)CN(Cc3ccc(Cl)cc3)C(=O)[C@@]12C | 2.8
Cc1cc(N/N=C/c2cccc(Br)c2)nc2ccccc12 | 26.3
O=C(O)C(C(O)c1ccc([N+](=O)[O-])cc1)[n+]1ccccc1.[Br-] (stereo not shown) | 21.1
COc1ccc(CSc2nnc(N)s2)cc1F | -4.82
CCN(CC(=O)NCc1cccs1)C(=O)c1ccc(OC)c(S(=O)(=O)N2CCOCC2)c1 | -6.53
Cc1ccc(C(=O)N(CC(=O)Nc2sc(C)c(C)c2C(N)=O)C2CCCC2)cc1 | -3.92
CCC(Cc1ccccc1)NC(=O)C1CCC(CNc2c(N3CCCC3)c(=O)c2=O)CC1 (stereo not shown) | 0.51
CS(=O)(=O)N1CCC(C(=O)Nc2cc(Cl)ccc2Cl)CC1 | 12.3
Br.CCCCn1c(=N)n(CC(=O)c2ccco2)c2ccccc21 | -41.8
CCOc1ccc(NC(=O)c2ccc(OCC3CCCO3)cc2)cc1S(=O)(=O)N(CC)CC (stereo not shown) | 12.4
Cc1c(NC(=S)NC(=O)c2ccccc2Br)c(=O)n(-c2ccccc2)n1C | 16.8
COc1ccc(NC(=O)C2CCN(S(=O)(=O)c3cccnc3)CC2)cc1Cl | 8.87

SMILES | hERG current change (%, negative = inhibition) at 10uM [%]
CC1=CC(C)C2C(=O)N(CCCN(C)C)C(=O)C2C1 (stereo not shown) | -5.7
CCCCC(=O)Nc1cccc(-c2nc3ncccc3o2)c1C | -5.35
Cc1ccc(N2C(=O)CSC2c2cccnc2)c(Cl)c1 (stereo not shown) | 13.3
CCc1cccc(NC(=O)CN(c2ccc(OC)cc2)S(=O)(=O)c2c(C)n[nH]c2C)c1 | -2.45
O=C1c2ccccc2C(=O)N1CC(O)CN1CCOCC1 (stereo not shown) | 0.24
CCOC(=O)c1ccccc1NC(=O)CSc1nc(N)cc(N)n1 | -15.4
O=C(c1cccc(C(F)(F)F)c1)N1C[C@H]2C[C@@H](C1)c1cccc(=O)n1C2 | -13.7
COCCNC(=O)C(C)OC(=O)C1=Cc2ccccc2OC1 (stereo not shown) | 7.38
CC1(C)CC(=O)C(C(=S)Nc2ccccc2)=C(NC2CC(C)(C)NC(C)(C)C2)C1 | -8.36
COc1ccc(-n2nnnc2SCC(=O)c2cccc(OC)c2)cc1 | 4.91
COCCNC(=O)/C(C#N)=C/c1c(N2CCN(C)CC2)nc2c(C)cccn2c1=O | 6.58
CCOC(=O)c1oc2ccccc2c1CN1CCN(C(=O)c2ccccc2)CC1 | -41.7
COc1ccc(S(=O)(=O)N2CCN(C(=O)CN3C(=O)NC(C)(c4ccc5ccccc5c4)C3=O)CC2)cc1 (stereo not shown) | -16
O=Nc1c(O)c2ccccc2c2ccccc12 | 4.12
Cc1nc2c(-c3ccc(F)cc3)cnn2c(N)c1-c1ccc(F)cc1 | 23.3
CC(=O)N/N=C(\C)c1ccc(Br)cc1Br | 31.3
COc1ccc(NC(=O)c2cccc(NC(=O)c3ccco3)c2)c(OC)c1 | -1.61
CC(C)c1cc(-c2cc(C(=O)NCc3ccccc3)on2)nc(NCC2CC2)n1 | 9.95
Cn1nc([N+](=O)[O-])nc1N1CCOCC1 | 23.7
CCOc1ccc(N(CC(=O)NC2CCCC2)C(=O)CCC(=O)Nc2ccccn2)cc1 | -56.2
CC1=NNC(=O)C1CCC(=O)N/N=C(\C)c1ccc(Cl)cc1 (stereo not shown) | -3.31
O=C(Nc1ccccc1C(F)(F)F)C1CCCC1 | 14.4

SMILES | hERG current change (%, negative = inhibition) at 10uM [%]
N/C(CC(=O)Nc1cccc(C(F)(F)F)c1)=N/O | -0.114
COc1ccc(-c2csc(/C(C#N)=C\c3cccc([N+](=O)[O-])c3)n2)cc1 | 24
COc1ccc(Br)cc1/C=C/C(=O)Nc1ccc2ccccc2c1 | 17.8
CN(Cc1nc(C(c2ccccc2)c2ccccc2)no1)CC1COCCO1 (stereo not shown) | -10.4
COC(=O)CSC1=C(C#N)C(c2ccccc2)CC(=O)N1 (stereo not shown) | 19.9
CCC(C)NC(=O)c1c(-c2cc(Cl)c(OC)c(Cl)c2)noc1C (stereo not shown) | -8.28
CCOC(=O)c1cncn1[C@@H](C)c1ccccc1 | -22
Cc1cccc(Nc2ccccc2C(=O)NCc2ccco2)c1C | 1.25
N#CC(=C1CCCC1)c1nc(-c2ccc(Cl)cc2)cs1 | 13.5
CCN(CC)c1ccc(S(=O)(=O)N2CCOCC2)cc1NC(=O)C1CC1 | -11.4
O=C(COC(=O)c1ccc2c(c1)OCCO2)Nc1cc(S(=O)(=O)N2CCOCC2)ccc1Cl | 13.9
CC(=O)c1cccc(S(=O)(=O)N2CCCC(c3nc4c(nnn4Cc4cccc(Cl)c4)c(=O)[nH]3)C2)c1 (stereo not shown) | 5.47
CCN(Cc1ccccc1)S(=O)(=O)c1ccc(C(=O)Nc2nnc(-c3ccccc3OC)o2)cc1 | 15
Cc1ccc(-n2nc3ccc(NC(=O)/C=C/c4ccco4)cc3n2)cc1C | -2.2
Cc1nc2scc(C)n2c(=O)c1S(=O)(=O)Nc1ccc(N2CCN(S(C)(=O)=O)CC2)cc1 | -3.78
COc1ccc(C(=O)CC(=O)C(=O)Nc2c(C)cccc2C)cc1 | -7.64
O=C(Nc1nnc(SCc2ccccn2)s1)C1CC(=O)N(c2ccccc2)C1 (stereo not shown) | -6
CN(C)C(CNc1ccc([N+](=O)[O-])cc1C#N)c1ccccc1 (stereo not shown) | -41.5
O=C(CSc1ncnc2ccccc12)Nc1cccc(S(=O)(=O)N2CCCC2)c1 | 0.329
Cc1ccc2cc(C(c3nnnn3Cc3ccccc3)N3CCc4ccccc43)c(=O)[nH]c2c1C (stereo not shown) | -9.39
CCC(=O)Nc1cccc(-c2csc(-c3ccccc3)n2)c1 | -7.58
O=C(CNC(=O)Cc1ccccc1)N=Nc1c(O)[nH]c2ccc(Br)cc12 | 24.7

SMILES | hERG current change (%, negative = inhibition) at 10uM [%]
CCOP(=O)(c1ccccc1)c1nc(-c2ccccc2Cl)oc1N1CCCCC1 (stereo not shown) | -11.4
Cc1cc(C)n(-c2nnc(N3CCN(c4ccc(F)cc4)CC3)nn2)n1 | 3.33
Nc1cc(Cl)ccc1C(=O)OCC(=O)N1CCCC1 | 2.73
C=CCn1c(SCC(=O)C23CC4CC(CC(C4)C2)C3)nc(O)cc1=O | 10.5
Cc1ccccc1S(=O)(=O)NC1OC(=O)C(Oc2ccccc2)=C1Br (stereo not shown) | 1.3
CC(C)OC(=O)CSc1nnc(-c2cnccn2)n1Cc1ccco1 | -16
Cc1ccc(NNc2c(C)nc3ccccc3nc2=O)cc1 | 16
CCC(=O)c1ccc(OCc2ccc(C(=O)OC)cc2)cc1 | -0.709
CC(OC(=O)Cn1[nH]c(=O)c2ccccc2c1=O)C(=O)Nc1ccc(F)cc1Cl (stereo not shown) | 12.8
COc1ccccc1NC(=O)CC(c1ccc(F)cc1)c1ccco1 (stereo not shown) | -19.4
Cc1ccc(NC2=C(NC(=O)c3ccccc3)C(=O)c3ccccc3C2=O)cc1Cl | -15.7
CC(=O)Oc1ccc(C(=O)Nc2ccc(S(=O)(=O)N3CCOCC3)cc2)cc1 | 11.9
O=C(NCc1cccs1)Nc1cccc(Cl)c1 | 6.97
O=C1CNC(=O)N1c1ccc(Cl)cc1 | 17
Cc1ccc(-c2nc(C#N)c(N3CCC(C(N)=O)CC3)o2)cc1 | -23.7
COc1ccc(C(=O)CNc2cccc(F)c2)cc1 | 19.4
Fc1ccc(NC(=S)N2CCCCC2)cc1 | 12
NS(=O)(=O)c1ccc(CNC(=O)c2ccc3c(=O)n4c(nc3c2)CCC4)cc1 | 13.9
CN(C)c1nc(OCCOC(=O)COc2ccc(Cl)cc2Cl)nc(N(C)C)n1 | -0.207
COC(=O)C(C(=O)Nc1ccc(OC)cc1)C1CCCCCC1 (stereo not shown) | 0.653
CCCCn1nnc(NC(=S)NC(=O)c2ccc(OCC)c([N+](=O)[O-])c2)n1 | -44.8
CCOc1ccc2nc(SCC(=O)N3CCCCCC3)c(C#N)cc2c1 | 0.675
